Scores with a large standard error are left out. The source holds two more conditions with little spread; they are left out. Names with del lack the residues named; names with ins carry added residues between the positions named. For part of these data: How much ogerin was present is not stated here.

To fix the notation:
B1: GPR68, Q15743 (parent)
chain: MGNITADNSSMSCTIDHTIHQTLAPVVYVTVLVVGFPANCLSLYFGYLQIKARNELGVYLCNLTVADLFYICSLPFWLQYVLQHDNWSHGDLSCQVCGILLYENIYISVGFLCCISVDRYLAVAHPFRFHQFRTLKAAVGVSVVIWAKELLTSIYFLMHEEVIEDENQHRVCFEHYPIQAWQRAINYYRFLVGFLFPICLLLASYQGILRAVRRSHGTQKSRKDQIQRLVLSTVVIFLACFLPYHVLLLVRSVWEASCDFAKGVFNAYHFSLLLTSFNCVADPVLYCFVSETTHRDLARLRGACLAFLTCSRTGRAREAYPLGAPEASGKSGAQGEEPELLTKLHPAFQTPNSPGSGGFPTGRLA

The variants in series [1] derive from B1. The series can be described thus: cAMP reporter score (Enrich2 score, wild type = 0); higher = more signal; HEK293T, FACS bins.
The variants in series [2] derive from B1. The experiment in a line: surface expression score (Enrich2 score, wild type = 0); higher = more signal; HEK293T, FACS bins.

In the case of C240_F241insGS, the cAMP reporter score is -1.91 in series [1] (pH 5.5); -1.35 in series [1] (pH 6); -2.05 in series [1] (pH 6.5, modulator: ogerin). Moreover, in series [2], the surface expression score is -1.99.
Take T233_V234insGSG: the cAMP reporter score in series [1] (pH 5.5) was -1.4; in series [1] (pH 6) it was -0.456; in series [1] (pH 6, modulator: ogerin) it was -1.14; in series [1] (pH 6.5, modulator: ogerin) it was -1.39. Moreover, the surface expression score in series [2] is -2.07.
For L231_T233del the same measures were -1.15, -1.41, -1.21, -1.61 and -2.48.
Turning to R228_L229insGSG, the cAMP reporter score is -2.68 in series [1] (pH 5.5); -0.967 in series [1] (pH 6); -2.11 in series [1] (pH 6, modulator: ogerin); -1.48 in series [1] (pH 6.5, modulator: ogerin). The surface expression score in series [2] is -0.609.
C240_F241del: the cAMP reporter score was -1.42 in series [1] (pH 5.5); -0.851 in series [1] (pH 6); -1.48 in series [1] (pH 6, modulator: ogerin); -0.685 in series [1] (pH 6.5, modulator: ogerin). In addition, the surface expression score in series [2] is -2.48.
As to L238_A239del, the cAMP reporter score in series [1] (pH 5.5) is -0.904; in series [1] (pH 6), -1.21; in series [1] (pH 6, modulator: ogerin), -0.704; in series [1] (pH 6.5, modulator: ogerin), -0.954. Besides, the surface expression score in series [2] is -2.67.
As for V234_V235insGSG, the cAMP reporter score is -1.09 in series [1] (pH 5.5); -1.01 in series [1] (pH 6); -2.12 in series [1] (pH 6, modulator: ogerin); -1.53 in series [1] (pH 6.5, modulator: ogerin). Moreover, in series [2], the surface expression score is -2.73.
Turning to L238_A239insGS, the cAMP reporter score is -0.913 in series [1] (pH 5.5); -0.922 in series [1] (pH 6); -1.35 in series [1] (pH 6.5, modulator: ogerin). The surface expression score in series [2] is -2.02.
On to R228_L229del, for which the cAMP reporter score in series [1] (pH 5.5) is -1.62; in series [1] (pH 6.5, modulator: ogerin), -1.59. The surface expression score in series [2] was -1.16.
As to V234_I236del, the cAMP reporter score in series [1] (pH 5.5) was -1.59; in series [1] (pH 6.5, modulator: ogerin) it was -0.936.
On to Q227_R228insGSG, for which the cAMP reporter score in series [1] (pH 5.5) is -1.6; in series [1] (pH 6), -1.26; in series [1] (pH 6, modulator: ogerin), -1.52; in series [1] (pH 6.5, modulator: ogerin), -0.839. The surface expression score in series [2] came to 0.399.
For the variant L229_L231del, the cAMP reporter score in series [1] (pH 5.5) is -1.99; in series [1] (pH 6), 0.023; in series [1] (pH 6, modulator: ogerin), -2.68; in series [1] (pH 6.5, modulator: ogerin), -1.4. In addition, the surface expression score in series [2] was -1.63.
For F237_L238insGS, the cAMP reporter score in series [1] (pH 5.5) was -0.716; in series [1] (pH 6, modulator: ogerin), -1.59; in series [1] (pH 6.5, modulator: ogerin), -1.05. In series [2], the surface expression score is -2.32.
For the variant C240L, the cAMP reporter score in series [1] (pH 5.5) was -0.164; in series [1] (pH 6, modulator: ogerin), -0.636; in series [1] (pH 6.5, modulator: ogerin) it was 0.546. Moreover, the surface expression score in series [2] was -0.824.
As to C240W, the cAMP reporter score is 0.394 in series [1] (pH 5.5); -0.251 in series [1] (pH 6); -0.493 in series [1] (pH 6, modulator: ogerin); -0.453 in series [1] (pH 6.5, modulator: ogerin). Moreover, in series [2], the surface expression score is -2.46.
Turning to C240K, the cAMP reporter score in series [1] (pH 5.5) was -1.71; in series [1] (pH 6), -1.28; in series [1] (pH 6, modulator: ogerin), -0.255; in series [1] (pH 6.5, modulator: ogerin) it was -0.768. In addition, the surface expression score in series [2] is -1.82.
As to C240M, the cAMP reporter score is 0.278 in series [1] (pH 5.5); 0.371 in series [1] (pH 6); 0.18 in series [1] (pH 6, modulator: ogerin); -0.66 in series [1] (pH 6.5, modulator: ogerin). The surface expression score in series [2] was -1.02.
As for C240A, the cAMP reporter score in series [1] (pH 5.5) was 0.241; in series [1] (pH 6) it was -1.28; in series [1] (pH 6, modulator: ogerin) it was -0.075; in series [1] (pH 6.5, modulator: ogerin) it was 0.662. In series [2], the surface expression score is -0.4.
Consider C240I, for which the cAMP reporter score came out at 0.232 in series [1] (pH 5.5); 0.571 in series [1] (pH 6, modulator: ogerin); 1.64 in series [1] (pH 6.5, modulator: ogerin). The surface expression score in series [2] is -2.14.
For the variant C240F, the cAMP reporter score is 0.558 in series [1] (pH 5.5); -0.191 in series [1] (pH 6); -0.213 in series [1] (pH 6, modulator: ogerin); -0.696 in series [1] (pH 6.5, modulator: ogerin). Further, the surface expression score in series [2] was found to be 1.18.
Take C240R: the cAMP reporter score in series [1] (pH 5.5) is -1.72; in series [1] (pH 6), -1.9; in series [1] (pH 6.5, modulator: ogerin), -0.437.
Turning to C240G, the cAMP reporter score in series [1] (pH 5.5) is 1.19; in series [1] (pH 6), -0.653; in series [1] (pH 6, modulator: ogerin), 1.15; in series [1] (pH 6.5, modulator: ogerin), -0.226. Moreover, the surface expression score in series [2] is -1.37.
With C240Y, the cAMP reporter score is -0.98 in series [1] (pH 5.5); -0.258 in series [1] (pH 6); -2.09 in series [1] (pH 6, modulator: ogerin); -1 in series [1] (pH 6.5, modulator: ogerin). Besides, the surface expression score in series [2] was -1.03.
Consider C240T, for which the cAMP reporter score in series [1] (pH 5.5) is -0.164; in series [1] (pH 6) it was -0.825; in series [1] (pH 6, modulator: ogerin) it was -0.643; in series [1] (pH 6.5, modulator: ogerin), -1.31. The surface expression score in series [2] is -3.35.
Take C240E: the cAMP reporter score in series [1] (pH 5.5) is -0.478; in series [1] (pH 6.5, modulator: ogerin), -0.432.
For C240H, the cAMP reporter score in series [1] (pH 5.5) was 0.365; in series [1] (pH 6), -0.609; in series [1] (pH 6, modulator: ogerin) it was -0.934; in series [1] (pH 6.5, modulator: ogerin), -1.09.
As to C240P, the cAMP reporter score was -1.33 in series [1] (pH 5.5); -1.44 in series [1] (pH 6); -2.11 in series [1] (pH 6, modulator: ogerin); -1.28 in series [1] (pH 6.5, modulator: ogerin). The surface expression score in series [2] is -1.99.
R228_L229insG: the cAMP reporter score in series [1] (pH 5.5) was -2.35; in series [1] (pH 6), -2.08; in series [1] (pH 6.5, modulator: ogerin) it was -0.512. The surface expression score in series [2] was -0.391.
R228_V230del: the cAMP reporter score in series [1] (pH 5.5) is -2.73; in series [1] (pH 6, modulator: ogerin) it was -2.26.
Take L229_V230insGSG: the cAMP reporter score is -2.24 in series [1] (pH 5.5); -1.63 in series [1] (pH 6); -1.68 in series [1] (pH 6, modulator: ogerin); -1.27 in series [1] (pH 6.5, modulator: ogerin). Moreover, in series [2], the surface expression score is -1.35.
Regarding T233_V234insG, the cAMP reporter score in series [1] (pH 5.5) was -2.29; in series [1] (pH 6) it was -1.42; in series [1] (pH 6, modulator: ogerin), -3.23; in series [1] (pH 6.5, modulator: ogerin) it was -1.1. In addition, in series [2], the surface expression score is -2.73.
F237_A239del: the cAMP reporter score in series [1] (pH 5.5) is -0.977; in series [1] (pH 6), -1.31; in series [1] (pH 6, modulator: ogerin), -1.2.
As for F237_L238del, the cAMP reporter score in series [1] (pH 5.5) was -1.75; in series [1] (pH 6) it was -0.944; in series [1] (pH 6, modulator: ogerin), -0.858; in series [1] (pH 6.5, modulator: ogerin), -1.65. Moreover, the surface expression score in series [2] was -2.32.
As for L229V, the cAMP reporter score in series [1] (pH 5.5) stood at 0.688; in series [1] (pH 6, modulator: ogerin) it was 0.614; in series [1] (pH 6.5, modulator: ogerin) it was 0.481. Also, the surface expression score in series [2] is -0.89.

Values taken from the GPR68 mutational scans of Howard et al. (2025).
